Reference: the supplement of paper PMC10600219
Counter-ions that a name gives are not always drawn. In all, about 2,800 compounds were measured (“cell viability relative to vehicle”: median about 0.98, lowest 2% from about 0.45 on). This is one part of the list.

What follows are molecules tested on NCI-H2228 alectinib-DTP (assay: cell viability relative to vehicle (fraction of vehicle); NCI-H2228 is an ALK-positive lung cancer line and DTP means drug-tolerant persister; higher = less growth inhibition). Conditions: 100 nM; treatment time 6 days.
Method in brief: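 The 3114-agent TargetMol anti-cancer compound library was tested at 100 nM for 6 days on parental NCI-H2228 cells and on persister cells derived with 1000 nM of a targeted drug for 13 days. ATP readout by the CellTiter-Glo 3D Cell Viability Assay gave cell viability relative to DMSO vehicle-treated cells.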

| Compound | cell viability |
| --- | --- |
| COc1ccc2c(c1)/C(=C/c1cnc[nH]1)C(=O)N2 | 1.01 |
| COc1ccc(C[C@H]2NC[C@H](O)[C@H]2OC(C)=O)cc1 [Anisomycin] | 0.661 |
| COc1ccc2c(c1)[nH]c1c(C)nccc12 [Harmine] | 0.801 |
| CN(C)NC(=O)CCC(=O)O [Daminozide] | 0.957 |
| NCCc1c[nH]c2ccc(O)cc12 [Serotonin hydrochloride] | 0.98 |
| C/C=C(\C)C(=O)N[C@@H](c1ccccc1)[C@@H](O)C(=O)O[C@H]1C[C@@]2(O)[C@@H](OC(=O)c3ccccc3)[C@@H]3[C@]4(OC(C)=O)CO[C@@H]4C[C@H](O)[C@@]3(C)C(=O)[C@H](OC(C)=O)C(=C1C)C2(C)C [Cephalomannine] | 0.508 |
| C[C@@H]1CN(Cc2ccc(F)cc2)CCN1C(=O)COc1ccc(Cl)cc1NC(N)=O | 1.07 |
| COc1cc([C@@H]2c3cc4c(cc3[C@H](O)[C@H]3COC(=O)[C@H]23)OCO4)cc(OC)c1OC [Podophyllotoxin] | 0.634 |
| CC(C)=CCC[C@](C)(O)[C@H]1CC[C@]2(C)[C@@H]1[C@H](O)C[C@@H]1[C@@]3(C)CC[C@H](O)C(C)(C)[C@@H]3[C@@H](O[C@@H]3O[C@H](CO)[C@@H](O)[C@H](O)[C@H]3O)C[C@]12C [Ginsenoside Rh1] | 0.928 |
| C[C@@H]1CCC=C2C(=O)C[C@H]3OOC(C)(C)[C@H]3[C@]21C [Nardosinone] | 0.941 |
| C#C[C@]1(O)C=C[C@H]2[C@@H]3CCC4=CC(=O)CC[C@@H]4[C@H]3CC[C@@]21CC [Gestodene] | 0.945 |
| CC(C)(C)NCC(O)c1ccccc1Cl (stereo not given) [Tulobuterol hydrochloride] | 0.856 |
| Cc1cccc([C@H](C)c2c[nH]cn2)c1C [Dexmedetomidine HCl] | 0.944 |
| Cc1cccc([C@H](C)c2c[nH]cn2)c1C [Dexmedetomidine] | 0.893 |
| C[C@H]1C(=O)O[C@@H]2CCN3CC=C(COC(=O)[C@](C)(O)[C@]1(C)O)[C@H]23 [Monocrotaline] | 0.941 |
| CO[C@]12C[C@@H](COC(=O)c3cncc(Br)c3)CN(C)[C@@H]1Cc1cn(C)c3cccc2c13 [Nicergoline] | 0.935 |
| CC(=O)OC12COC1CC(O)C1(C)C(=O)C(O)C3=C(C)C(O)CC(O)(C(OC(=O)c4ccccc4)C21)C3(C)C (stereo not given) [10-Deacetylbaccatin III] | 1.01 |
| C[N+]12CCC(CC1)C(OC(=O)C(O)(c1ccccc1)c1ccccc1)C2 (stereo not given) [Clidinium bromide] | 0.958 |
| CC1=C[C@H]2[C@@]3(O)[C@H](C)[C@@H](O)[C@]4(O)[C@H]([C@@H]3C=C(CO)C[C@]2(O)C1=O)C4(C)C [Phorbol] | 0.999 |
| O=P1(NCCCl)OCCCN1CCCl (stereo not given) [Ifosfamide] | 1.15 |
| CC(C)c1c(CN(C)C(C)Cc2ccccc2)n(C)n(-c2ccccc2)c1=O (stereo not given) [Famprofazone] | 1.09 |
| N#C/C=C1/C=C[C@@H](O)[C@H](O)[C@H]1O[C@@H]1O[C@H](CO)[C@@H](O)[C@H](O)[C@H]1O [Griffonin] | 0.984 |
| CN1C(=O)COc2c(C(=O)NC3CN4CCC3CC4)cc(Cl)cc21 (stereo not given) [Azasetron hydrochloride] | 0.929 |
| Cc1cccc(C)c1NC1=NCCCS1 [Xylazine hydrochloride] | 0.914 |

| Compound | cell viability |
| --- | --- |
| O=C1CCC[C@@H]2[C@H]3CCCN4CCC[C@@H](CN12)[C@@H]34 [(+)-Matrine] | 0.939 |
| Clc1ccc(C(OCCN2CCCCC2)c2ccccc2)cc1 (stereo not given) [Cloperastine hydrochloride] | 1 |
| Clc1ccccc1C(c1ccccc1)(c1ccccc1)n1cccn1 | 0.859 |
| O=C(N[C@H]1CN2CCC1CC2)c1cc2cccc(Cl)c2s1 [EVP-6124 hydrochloride] | 0.906 |
| CC(=O)O[C@H]1[C@H]2O[C@]23[C@@H]2CC[C@@H]4C[C@@H](O)CC[C@]4(C)[C@H]2CC[C@]3(C)[C@H]1c1ccc(=O)oc1 [Cinobufagin] | 0.142 |
| NCCc1c[nH]c2ccccc12 [Tryptamine] | 1.12 |
| Cc1cc(SCc2sc(-c3ccc(C(F)(F)F)c(F)c3)nc2C)ccc1OCC(=O)O | 1.09 |
| O=C(O)C1C2CCC(O2)C1C(=O)O (stereo not given) [Sodium Demethylcantharidate] | 1.11 |
| CC(C)(C)[C@]1(O)CC2OC(=O)CC23C(=O)OC2OC(=O)[C@H](O)C231 (stereo not given in full) [Bilobalide] | 1 |
| CCCC(C)(C)c1ccc2c(c1)OC(C)(C)[C@@H]1CC=C(C)C[C@@H]21 | 0.862 |
| CC1=C[C@]23C(=O)[C@@H](C=C(CO)[C@@H](O)[C@]2(O)[C@H]1O)[C@H]1[C@@H](C[C@H]3C)C1(C)C [Ingenol] | 1.17 |
| CCC1(c2ccc(N)cc2)CCC(=O)NC1=O (stereo not given) [Aminoglutethimide] | 1.03 |
| CCN(C)C(=O)Oc1cccc([C@H](C)N(C)C)c1 [Rivastigmine] | 1.02 |
| CCN(C)C(=O)Oc1cccc([C@H](C)N(C)C)c1 [Rivastigmine tartrate] | 0.935 |
| CN(C)C(=O)Oc1cc(OC(=O)N(C)C)cc(C(O)CNC(C)(C)C)c1 (stereo not given) [Bambuterol hydrochloride] | 0.843 |
| NCCc1ccc(O)cc1 [Tyramine] | 0.998 |
| CCn1cc(C(=O)O)c(=O)c2cc3c(cc21)OCO3 [Oxolinic acid] | 1 |
| C[C@]12CC[C@H](O)C[C@@H]1CC[C@@H]1[C@@H]2CC[C@]2(C)C(=O)CC[C@@H]12 [Epiandrosterone] | 0.814 |
| C[N+]1(C)[C@@H]2C[C@@H](OC(=O)[C@H](CO)c3ccccc3)C[C@H]1[C@@H]1O[C@@H]12 [Methscopolamine] | 0.998 |
| O=C1CCC[C@@H]2[C@H]3CCCN4CCC[C@H](CN12)[C@@H]34 [Sophoridine] | 0.886 |
| O=C(/C=C/c1ccccc1)OC[C@H]1O[C@@H](O[C@@H]2OC=C[C@H]3[C@H](O)[C@@H]4O[C@]4(CO)[C@@H]23)[C@H](O)[C@@H](O)[C@@H]1O [Picroside I] | 1.06 |
| C=C1CC[C@H]2[C@@H](/C=C(\C)C(=O)[C@@]3(O)C[C@H](C)[C@H](O)[C@@H]3[C@@H]1O)C2(C)C [Lathyrol] | 1.08 |
| Cc1c(Cl)cccc1S(=O)(=O)Nc1nc(CC(=O)N2CCN(C)CC2)cs1 | 0.928 |
| COc1ccc2c(c[n+](C)c3c4cc5c(cc4ccc23)OCO5)c1OC [Chelerythrine] | 1.03 |

| Compound | cell viability |
| --- | --- |
| COc1ccc2c(c[n+](C)c3c4cc5c(cc4ccc23)OCO5)c1OC [Chelerythrine chloride] | 1.04 |
| O=c1[nH]c2ccccc2n1C1CCN(Cc2ccc(-c3[nH]c4cc5ncnc5cc4nc3-c3ccccc3)cc2)CC1 [AKT inhibitor VIII] | 0.865 |
| COc1cc(C2OCC3C(c4cc(OC)c(O[C@@H]5O[C@H](CO)[C@@H](O)[C@H](O)[C@H]5O)c(OC)c4)OCC23)cc(OC)c1O[C@H]1O[C@@H](CO)[C@H](O)[C@@H](O)[C@@H]1O (stereo not given in full) [Eleutheroside E] | 0.943 |
| C[C@H](Nc1ncnc2[nH]cnc12)c1nc2ccc(F)cc2c(=O)n1-c1ccccc1 [Acalisib] | 0.875 |
| COc1ccc(CCN2CCC(Nc3nc4ccccc4n3Cc3ccc(F)cc3)CC2)cc1 [Astemizole] | 1.04 |
| CC(=O)O[C@H]1C[C@H](O[C@H]2[C@@H](O)C[C@H](O[C@H]3[C@@H](O)C[C@H](O[C@H]4CC[C@@]5(C)[C@H](CC[C@@H]6[C@@H]5C[C@@H](O)[C@]5(C)[C@@H](C7=CC(=O)OC7)CC[C@]65O)C4)O[C@@H]3C)O[C@@H]2C)O[C@H](C)[C@H]1O[C@@H]1O[C@H](CO)[C@@H](O)[C@H](O)[C@H]1O [Lanatoside C] | 0.49 |
| Cc1c([C@H](C)[C@@H]2NC[C@@H](C)C[C@H]2O)ccc2c1C[C@H]1[C@H]2CC=C2C[C@@H](O)CC[C@@]21C [Veratramine] | 0.894 |
| CC(=O)Nc1ccc(OC[C@](C)(O)C(=O)Nc2ccc([N+](=O)[O-])c(C(F)(F)F)c2)cc1 [Andarine] | 0.917 |
| C[C@](O)(COc1ccc(C#N)cc1)C(=O)Nc1ccc(C#N)c(C(F)(F)F)c1 [Ostarine] | 0.904 |
| C=CCCCCCCCCC(=O)O[C@H]1CC[C@H]2[C@@H]3CCC4=CC(=O)C=C[C@]4(C)[C@H]3CC[C@]12C [Parenabol] | 1.04 |
| CNCC(=O)c1ccc(O)c(O)c1 [Adrenalone hydrochloride] | 0.895 |
| CC(C)[C@H](N)C(=O)N1CCC[C@H]1B(O)O [Talabostat mesylate] | 1.05 |
| C=C(C)[C@H]1Cc2c(ccc3c2O[C@@H]2COc4cc(OC)c(OC)cc4[C@@H]2C3=O)O1 [Rotenone] | 0.851 |
| COC(=O)C1=CCCN(C)C1 [Arecoline HBr] | 1.13 |
| C[C@]12CC[C@H]3[C@@H](CC[C@@]45O[C@@H]4C(O)=C(C#N)C[C@]35C)[C@@H]1CC[C@@H]2O [Trilostane] | 0.896 |
| N#Cc1c(Oc2cccc(OS(=O)(=O)CCCC(F)(F)F)c2)cccc1C(F)(F)F | 0.899 |
| C[N+](C)(C)CCCCCCCCCC[N+](C)(C)C [Decamethonium bromide] | 0.953 |
| C[C@]12CC[C@H](O)C[C@H]1CC[C@@H]1[C@@H]2CC[C@]2(C)[C@@](O)(c3ccoc3)CC[C@]12O [Rostafuroxin] | 0.988 |
| COc1ccc(/C=C/C=C2C(=O)NC(=O)NC2=O)cc1 | 0.972 |
| CC(CCc1ccccc1)NC(C)C(O)c1ccc(O)cc1 (stereo not given) [Nylidrin hydrochloride] | 1.02 |
| O=C(O)CNC(=O)c1c(O)c2ccccc2n(Cc2ccccc2)c1=O | 0.865 |
| COc1cc2c3c(c1OC)-c1ccccc1C[C@H]3N(C)CC2 [Nuciferine] | 0.958 |
